How the values were obtained:
[1] = target: 人PD-1-His蛋白 (自产; human PD-1 extracellular domain with His tag) (human, UniProt Q15116 in part); experiment: BLI (Fortebio Octet RED96), antibody on AHC sensor, PD-1-His as analyte
[2] = target: T1, human CTLA-4 on the surface of CHO-K1-CTLA-4 cells (human, UniProt P16410 36-223); experiment: FACS on CHO-K1-CTLA-4 cells
T1 construct: also called 细胞表面hCTLA-4; CTLA-4 on CHO-K1-PD1-CTLA-4 cells
T1 sequence: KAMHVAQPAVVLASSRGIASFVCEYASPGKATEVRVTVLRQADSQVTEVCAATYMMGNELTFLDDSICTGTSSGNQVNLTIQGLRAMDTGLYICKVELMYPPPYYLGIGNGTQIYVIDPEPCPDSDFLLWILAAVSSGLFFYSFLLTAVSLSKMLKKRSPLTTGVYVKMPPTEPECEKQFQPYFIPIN

[3] = target: T2, PD-1 on the surface of hPD-1-CHO-K1 cells (human, UniProt Q15116 25-288); experiment: FACS on CHO-K1-PD-1 cells
T2 construct: also called 细胞表面PD-1; CHO-K1-PD-1

[4] = target: T3, 人CTLA-4-His蛋白 (human CTLA-4 extracellular domain fused to His tag) (human, UniProt P16410 36-161); experiment: ELISA, human CTLA-4-His coated
T3 construct: also called hCTLA-4-His
T3 sequence: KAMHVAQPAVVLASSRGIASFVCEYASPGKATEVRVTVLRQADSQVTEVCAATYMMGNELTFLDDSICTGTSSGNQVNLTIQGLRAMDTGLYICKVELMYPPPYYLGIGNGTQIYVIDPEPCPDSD

Measured: binding result

B1: BsAB0192-1 (bispecific antibody, human IgG4 S228P, kappa)
heavy: QVQLVQSGAEVKKPGASVKVSCKASGYTFTWYHMSWVRQAPGQGLEYMGYINTRSGDTYYNEKFKGRVTMTTDTSTSTAYMELRSLRSDDTAVYYCARSGYGGSDYWGQGTLVTVSSASTKGPSVFPLAPCSRSTSESTAALGCLVKDYFPEPVTVSWNSGALTSGVHTFPAVLQSSGLYSLSSVVTVPSSSLGTKTYTCNVDHKPSNTKVDKRV[omitted - human IgG4 Fc with S228P (EU numbers)]GGGGSGGGGSGGGGSQVQLVESGGGVVQPGRSLRLSCAASGFTFSNYAMSWVRQAPGKGLEWVAEISYSGTYSYHSDTVTGRFTISRDNSKNTLYLQMSSLRAEDTAVYYCTRRDYDNEMDYWGQGTLVTVSSGGGGSGGGGSGGGGSGGGGSDIQMTQSPSSLSASVGDRVTITCRTSQVITNYLNWYQQKPGKAPKLLIYYTSRLHSGVPSRFSGSGSGTDYTLTISSLQPEDFATYYCQQFGKRPPTFGGGTKVEIK
light: DIVMTQSPDSLAVSLGERATINCKSSQNLLYSENKKNSLAWYQQKPGQPPKLLISWASTREFGVPDRFSGSGSGTDFTLTISSLQAEDVAVYYCEQYYDILPTFGGGTKVEIKRTVAAPSVFIFPPSDEQLKSGTASVVCLLNNFYPREAKVQWKVDNALQSGNSQESVTEQDSKDSTYSLSSTLTLSKADYEKHKVYACEVTHQGLSSPVTKSFNRGEC
notes: BsAB0192-1 = ScFv-[P01-22-C92-11]; also called ScFv-[P01-22-C92-11]; 抗CTLA-4/抗PD-1双特异性抗体
binds: [1] | [2] | [3] | [4]

Source: patent CN115010810A (NANJING SANHOME PHARMACEUTICAL CO LTD, dated 2022)
